Results as given in the supplement of paper PMC10126150.
Values marked as one replicate rest on one cluster of the flow cell; about a third of the high ones do not repeat.

The sequences below were run on ATP (assay: switch fluorescence ratio, 500 uM ATP over buffer (Cy3 cluster intensity, sum of 5 cycles each) (fold (ratio)); higher = stronger signal-on switching upon ATP binding; sequences stand for … in TCGTCGGCAGCGTCAGATGTGTATAAGAGACAGTTTTTTTTTTTTTTTTTTTTTTTTT…TC). Conditions: aptamer strand: ATP DNA aptamer (quencher-CACCTGGGGGAGTATTGCGGAGGAAGG + anchor), 100 nM annealed; ATP concentration: 500 uM; one replicate.
Summary of the method: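 For every switch-domain sequence, the fluorescence ratio is the mean of per-cluster values, each being summed target-cycle Cy3 intensity over summed buffer-cycle Cy3 intensity. Clusters outside 100-1000 RFU were excluded. On a modified Illumina MiSeq flow-cell, the Cy3-labelled switching-strand clusters were annealed to 100 nM quencher-labelled ATP aptamer, imaged in selection buffer and then after 15 min with 500 uM ATP at 22 °C. Five such cycles were run, with NaOH stripping and re-annealing between them.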
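Also: ATP exposure 15 min at 22 °C before imaging.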

Sequence | switch fluorescence ratio
ACAATTTACA | 1.11
GACCCATGGA | 1.02
GTGGTCCTCG | 1.01
GCGAAAGCAA | 1.03
AGATATTGAG | 0.993
CGCTGGTGTA | 1.01
TGCCCGGGAC | 2.12
ATGGCGAGGC | 1.03
TGTGTGCGTG | 0.976
TGGAGCCTGC | 0.97
TGTACATGTC | 1.05
TATTTGTCGT | 0.938
GACCAGCGAG | 1
CGACTTCCTA | 1.16
ACGACCGCGT | 1.22
TTAGGTTGGA | 0.984
TAGATATTAT | 1.02
TTGTGTACGA | 1.03
GAACCCGCCC | 1.38
GAAGTCTAAA | 0.995
CACGAATCTT | 1.03
CGGGCGCTAC | 3.83
TGGAGGAGG | 0.986

Sequence | switch fluorescence ratio
ACCCATACAG | 1.07
CCTATATCTG | 0.978
CAATCGGGTT | 0.968
GTAACGCTGG | 1.03
GTAATTTCAC | 1.01
TATGTCGTTG | 1
CCGAATGGCT | 1.09
GACTTATAAC | 1.02
GAGCCAGAAG | 1.01
ATCCTTGCCT | 1.07
ATGGAAGTAA | 1.02
ACTCTAGTG | 1.01
TACGGTTGCT | 1.01
GACATGTGGG | 0.985
GAAACTGCGC | 1
AACTAATTAA | 0.982
TTCCATAAAA | 0.983
ATCTGCCCCG | 1.02
AGCCTTGAGT | 0.958
AATTTAACTA | 1
CTTGATATAC | 1.52
AAGGCGTATA | 0.998
ATTTTGGGCA | 0.999

Sequence | switch fluorescence ratio
GTTATCACGG | 0.997
CGGCGCAGTG | 1.07
CTGTATTAAG | 1.03
GGTGCCTATT | 0.945
GTTCCGTCGA | 1.03
TTAGTCTACT | 1.03
GCATGCCGAT | 0.976
GAGGAACACC | 0.951
TGGGGTTTC | 0.946
AAGTATGCGT | 1.03
GCAAATTGGT | 1.01
GTTTGTATGC | 0.955
GTCATTATTA | 1.03
CGTTAGTGAG | 0.999
CCAATGGCTC | 1.13
GTTATTTTGG | 1.02
TTTTGCGTCC | 1.09
GAGGTTAAG | 0.978
AGGCGGAACA | 0.948
CTGTGTTTTG | 0.989
GGCTAGGTAT | 1.05
ACGGCACAAC | 1.38
ACGGAAATGG | 1.01

Sequence | switch fluorescence ratio
GTATAGTACG | 0.998
TTGCTCTAGA | 0.963
TTGCAGCG | 1.04
AAACACATTA | 1.07
AGGGCTACAC | 0.937
GCCGCGACCC | 1.41
CTTGGTATCG | 0.97
TCGGGCGAGA | 1.05
TATCCCTGGG | 1.06
TGAGAGGGCG | 0.958
ACGGTTCGGT | 0.999
TTAGTAATGG | 0.925
TGATAGCATT | 1.03
GACCACTCAT | 1.04
CATATCTTCC | 2.02
TTGCTGGGA | 0.979
CTGCCGGAGC | 2.43
ACGAATATTG | 1.01
CCCTTTATGT | 1.02
CGAGGAAAAC | 1.09
CGTGCTCGCT | 1.03
AAACACAATG | 1.04
CATACATATA | 1.04

Sequence | switch fluorescence ratio
GGGCGAAACG | 1.02
ATTTCGCATT | 1.03
CGCTACTCAA | 3.13
CTCCAGTAGG | 1.15
TGGCCGGACG | 0.971
TCTAAAACTC | 0.961
CCCACGGCCT | 1.07
TCTCCACCTA | 1.16
GAATCGCCCG | 1
GTATGTTTGT | 0.946
CCTGGGAATC | 1.49
ACCGCTGCGC | 1.62
TTAAGACGG | 0.979
GCACAGGCGT | 1.16
TATTCTTAAT | 0.996
TAGAAGTCA | 1.01
CGAATCCTTA | 1.01
GAAAGGCAGC | 0.963
TGGCCGTAAT | 1.13
GATGATAGTG | 0.958
AAGAGTGTCA | 0.977
TCTCTGAAGC | 1.16
AGCGAGGTGC | 1.03

Sequence | switch fluorescence ratio
TAGATAGTAC | 0.995
CCAGGGCCCA | 1.01
CCTCGAACA | 1.4
TTACGGGTAC | 1.07
GATGTATGT | 0.996
AACGTTATAT | 1.05
TCTGTTTGGC | 0.94
AATGTGTGCA | 1
ACAAAAAGAG | 1.1
AAGTAAAGGC | 1.22
CCCCAATT | 1.07
TTAGACGTGG | 1.04
TTGCGATGGC | 1.01
AGCTGCTATT | 1.03
TATCCTGGAG | 1.04
CCCGCGCGC | 1.21
AGTTCTCTC | 1.02
GGTCGGCAGG | 0.992
TCCTCTTGCT | 1.86
ATCTGCGTGC | 1.13
AGGG | 1.02
GCGCTATAGT | 1.63
CATGTTTCGG | 0.974

Sequence | switch fluorescence ratio
CGATGACTCC | 1.43
TTGGGAGCGA | 1.2
CCGAACTGGA | 1.04
ATATACCATA | 1.06
GTGCTTGACC | 1.03
CCTAAGCCGT | 1.02
CACTCTGTGG | 1.09
GGTTTGTA | 0.996
TTGTCGGATC | 0.966
GCGAACAAAT | 1.05
CGCTTCCTGT | 1.08
GCGTCAAGT | 0.998
CTTGGCCAAG | 0.941
TGACGTAGCA | 1.23
CGTCTTC | 0.99
TGATGTTTCA | 0.982
CGAGCTATCG | 1.03
ACCTTACATG | 1.2
GTTTTGGACT | 1
CACTGGTACC | 1.07
